Experimental data from PubChem BioAssay AID504333 (National Center for Advancing Translational Sciences (NCATS), 2011).
“And” between values parts separate entries of the source, which are not always exact repeats. Identical values can stand only once. The campaign covered roughly 360,000 compounds. About 16,000 (4.4%) were called active. The inconclusive results got no clear call from the source; some entries with a clear call stand among them for comparison. The call rests on the fitted dose curve; in most records, active means well fitted inhibition curve with a large enough effect; inconclusive means small, poorly fitted or top-dose-only effect; inactive means no such curve, though single readings can be large or run the other way. A potency beside an inconclusive call is a rough fit, not a confirmed value.
Further: nearly all actives have a fitted effect of over 60% in size.
On the % scale 0 is the no-effect control and ±100 the full control effect; potency means the concentration at half of the fitted maximal effect; tags describe the fitted curve by direction and shape.

The molecules below were run against Bromodomain adjacent to zinc finger domain protein 2B (Homo sapiens) (UniProt Q9UIF8) (assay: qHTS Assay for Inhibitors of BAZ2B). Details: AlphaScreen BAZ2B-H3K14Ac peptide displacement; activity change, negative = inhibition: at 114 µM (top of the series) unless noted.
Chain of UniProt Q9UIF8 (Q9UIF8 whole entry, looked up, the tested form may be a part): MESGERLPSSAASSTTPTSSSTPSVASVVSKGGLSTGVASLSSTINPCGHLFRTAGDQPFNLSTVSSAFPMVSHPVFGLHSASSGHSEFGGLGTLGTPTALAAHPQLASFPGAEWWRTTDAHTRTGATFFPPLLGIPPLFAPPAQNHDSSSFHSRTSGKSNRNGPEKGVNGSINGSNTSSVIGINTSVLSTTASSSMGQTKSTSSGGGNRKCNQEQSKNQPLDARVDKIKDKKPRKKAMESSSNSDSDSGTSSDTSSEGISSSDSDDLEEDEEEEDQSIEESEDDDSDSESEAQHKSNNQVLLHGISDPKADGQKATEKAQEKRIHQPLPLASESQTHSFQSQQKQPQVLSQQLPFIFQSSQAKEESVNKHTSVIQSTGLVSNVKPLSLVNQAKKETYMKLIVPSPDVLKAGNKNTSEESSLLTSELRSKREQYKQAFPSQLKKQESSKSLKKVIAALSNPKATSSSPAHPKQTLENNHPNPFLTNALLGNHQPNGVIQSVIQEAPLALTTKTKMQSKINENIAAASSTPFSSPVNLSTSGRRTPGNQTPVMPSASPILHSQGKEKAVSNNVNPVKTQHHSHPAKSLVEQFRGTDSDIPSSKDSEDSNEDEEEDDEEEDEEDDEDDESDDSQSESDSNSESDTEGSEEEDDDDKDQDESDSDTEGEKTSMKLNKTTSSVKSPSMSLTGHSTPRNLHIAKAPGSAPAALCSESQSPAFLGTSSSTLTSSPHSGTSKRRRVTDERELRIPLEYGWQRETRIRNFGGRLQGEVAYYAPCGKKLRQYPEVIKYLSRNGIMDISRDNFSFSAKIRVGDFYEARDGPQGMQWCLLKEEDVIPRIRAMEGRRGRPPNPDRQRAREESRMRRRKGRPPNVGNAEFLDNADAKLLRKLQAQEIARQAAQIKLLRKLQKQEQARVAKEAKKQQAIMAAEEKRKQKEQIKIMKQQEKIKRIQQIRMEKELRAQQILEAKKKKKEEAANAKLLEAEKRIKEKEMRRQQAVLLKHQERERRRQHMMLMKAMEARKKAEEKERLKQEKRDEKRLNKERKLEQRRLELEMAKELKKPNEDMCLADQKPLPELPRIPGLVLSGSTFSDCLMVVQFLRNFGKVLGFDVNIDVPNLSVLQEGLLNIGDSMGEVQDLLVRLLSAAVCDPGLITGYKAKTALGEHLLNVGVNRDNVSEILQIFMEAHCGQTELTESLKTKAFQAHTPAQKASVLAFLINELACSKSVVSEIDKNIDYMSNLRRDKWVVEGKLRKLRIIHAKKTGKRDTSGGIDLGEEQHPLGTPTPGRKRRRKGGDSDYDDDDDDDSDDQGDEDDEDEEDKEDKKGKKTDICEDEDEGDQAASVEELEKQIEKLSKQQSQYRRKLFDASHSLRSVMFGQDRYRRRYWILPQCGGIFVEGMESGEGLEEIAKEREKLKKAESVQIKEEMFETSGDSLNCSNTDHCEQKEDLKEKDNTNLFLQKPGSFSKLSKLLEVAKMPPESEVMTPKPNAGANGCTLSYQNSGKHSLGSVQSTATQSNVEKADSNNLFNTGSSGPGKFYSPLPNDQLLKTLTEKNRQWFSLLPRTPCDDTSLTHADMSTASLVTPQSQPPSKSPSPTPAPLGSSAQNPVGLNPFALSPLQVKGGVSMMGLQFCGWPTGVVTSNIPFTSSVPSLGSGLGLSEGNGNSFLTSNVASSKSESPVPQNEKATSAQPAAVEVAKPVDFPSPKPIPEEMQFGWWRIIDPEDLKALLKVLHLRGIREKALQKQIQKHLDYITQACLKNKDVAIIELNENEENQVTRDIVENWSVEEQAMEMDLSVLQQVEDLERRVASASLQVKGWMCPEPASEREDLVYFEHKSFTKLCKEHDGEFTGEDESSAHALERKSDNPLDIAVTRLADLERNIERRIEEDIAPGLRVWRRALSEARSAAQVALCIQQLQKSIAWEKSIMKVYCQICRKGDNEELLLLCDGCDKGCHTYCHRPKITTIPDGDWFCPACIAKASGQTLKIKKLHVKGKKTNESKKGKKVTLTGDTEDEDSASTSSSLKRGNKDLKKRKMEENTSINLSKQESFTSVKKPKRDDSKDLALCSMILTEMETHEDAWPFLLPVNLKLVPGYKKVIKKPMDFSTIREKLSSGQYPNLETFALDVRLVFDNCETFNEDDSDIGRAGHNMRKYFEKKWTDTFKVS
Outline: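 In this displacement format the biotinylated H3(5-23) peptide acetylated at Lys14 serves as ligand at 50 nM, with BAZ2B at 50 nM in PBS pH 7.4 containing 0.01% Tween-20. Donor and acceptor beads are 10 ug/mL final.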
With COc1cc(C2NC(=S)NC(C)=C2C(=O)c2ccccc2)ccc1O (stereo unspecified) the Potency was inconclusive: 70.8 µM [inhibitor, single point].
With COCCN1C(=O)C(=O)/C(=C(/O)c2ccc(S(=O)(=O)N3CCOCC3)cc2)C1c1cccc(O)c1 (stereo unspecified) the Potency was inconclusive: 79.4 µM [inhibitor, partial curve].
COc1ccc(NS(=O)(=O)c2ccc3[nH]c(=O)ccc3c2)cc1OC was tested, and the Potency was inconclusive: 39.8 µM [inhibitor, partial curve].
In the case of Oc1ccccc1C1CCCCC1c1ccccc1 (stereo unspecified), the “activity change, negative = inhibition” value is reported as inactive: 24%.
For COc1ccc(C)cc1NCc1ccc([N+](=O)[O-])cc1, the Potency was active: 39.8 µM.
For Cc1ccc2nc(N(CCCN(C)C)C(=O)c3ccc4ncsc4c3)sc2c1, the Potency was inconclusive: 56.2 µM [inhibitor, partial curve].
For O=C(O)c1ccc(N/N=C/c2cn(Cc3ccccc3F)c3ccccc23)cc1, the Potency was active: 39.8 µM.
For COc1ccc(-n2cc(CN(C)C3CCOCC3)c(-c3cccc(F)c3)n2)cc1, the “activity change, negative = inhibition” value was inactive: -6.2%.
With CC(Oc1ccc(Cl)cc1)c1ccc(C#N)c(=O)[nH]1 (stereo unspecified) the Potency was inconclusive: 3.98 µM [inhibitor, single point].
With CCn1c(=O)n(CC)c2cc(N3CCCC3)c(NC(=O)c3ccccc3)cc21 the Potency was inconclusive: 50.1 µM [inhibitor, partial curve].
COc1cccc2cc(C(=O)Oc3ccccc3)c(=O)oc12 was tested, and the Potency was inconclusive: 89.1 µM [inhibitor, single point].
For Cc1ccc(CNS(=O)(=O)c2ccc(CN3C(=O)c4cccnc4C3=O)cc2)o1, the Potency was active: 79.4 µM.
N=c1sccn1CC(=O)Nc1ccc(SC(F)F)cc1 was tested, and the “activity change, negative = inhibition” value was inactive: -16.7%.
In the case of Cc1ccc(/C=N/n2c(COc3ccccc3)n[nH]c2=S)s1, the Potency is reported as inconclusive: 25.1 µM [inhibitor, single point].
For O=C(Nc1nccs1)c1sc2cc(Cl)ccc2c1Cl, the Potency was inconclusive: 89.1 µM [inhibitor, single point].
CCN(CC)C(=O)Cn1c(=O)n(Cc2ccc(C(=O)NCCCOC)cc2)c(=O)c2ccccc21 was tested, and the Potency was inconclusive: 89.1 µM [inhibitor, single point].
With OC(CNCc1ccccc1)Cn1ccc2ccccc21 (stereo unspecified) the Potency was inconclusive: 50.1 µM [inhibitor, partial curve].
For Cc1cccc(C(=O)NC(=S)Nc2ccc(N3CCOCC3)cc2)c1, the Potency was active: 31.6 µM.
In the case of O=[N+]([O-])c1cccc(/C=C/C=N/Nc2nc(N3CCCCC3)nc(N3CCCCC3)n2)c1, the Potency is reported as inconclusive: 39.8 µM [inhibitor, partial curve].
In the case of CC(=O)NCCNC(=O)[C@H](Cc1ccccc1)NC(=O)c1cccs1, the Potency is reported as inconclusive: 10 µM [inhibitor, single point].
In the case of O=C(NNC(=S)Nc1ccccc1Cl)c1ccccc1Cl, the Potency is reported as inconclusive: 56.2 µM [inhibitor, partial curve].
COc1ccc(Cl)cc1Nc1nc(-c2sc(NC(=O)c3ccco3)nc2C)cs1 was tested, and the Potency was inconclusive: 79.4 µM [inhibitor, partial curve].
Oc1cc(-c2ccc(N3CCCCC3)nc2)cc2cccnc12 was tested, and the “activity change, negative = inhibition” value was inactive: 8.55%.
O=C(Nc1sc2c(c1C(=O)NCc1ccccc1)CCCC2)c1cc(=O)c2ccccc2o1 was tested, and the “activity change, negative = inhibition” value was inactive: -11.7%.
COc1ccc(/C=C2\CCCC3C2=NN(C(=O)c2scnc2C)C3c2ccc(OC)cc2)cc1 (stereo unspecified) was tested, and the Potency was inconclusive: 100 µM [inhibitor, single point].
For Cc1ccc(CN2CCC(N3CC(C)OC(C)C3)CC2)cc1 (stereo unspecified), the Potency was active: 56.2 µM.
Cc1ccc(C)c(S(=O)(=O)N2CCN(C(=O)c3cc(S(=O)(=O)NCc4ccccc4)ccc3C)CC2)c1 was tested, and the “activity change, negative = inhibition” value was inactive: -4.75%.
For CCOc1ccc(/C=N/Nc2ccc(C(F)(F)F)cc2[N+](=O)[O-])cc1O, the Potency was inconclusive: 8.91 µM [inhibitor, full curve].
For Cc1nc(-c2ccccc2)sc1CCNC(=O)C(=O)Nc1ccc(F)c(Cl)c1, the “activity change, negative = inhibition” value was inactive: -1.67%.
With CC(=O)N1CCN(C(=O)CN2C(=O)NC(C)(c3ccc4ccccc4c3)C2=O)CC1 (stereo unspecified) the Potency was inconclusive: 89.1 µM [inhibitor, single point].
For CCC(CC)c1nc(C#N)c(NC(C)c2ccccc2)o1 (stereo unspecified), the Potency was inconclusive: 50.1 µM [inhibitor, partial curve].
In the case of Cc1ccc(S(=O)(=O)N2CCN(CC3CC4C=CC3C4)CC2)cc1 (stereo unspecified), the Potency is reported as active: 17.8 µM.
For COc1ccc(C(=O)C(CN2CCOCC2)c2ccccc2)cc1F (stereo unspecified), the Potency was inconclusive: 89.1 µM [inhibitor, single point].
With Cc1cccc(OCC(=O)Nc2sc3c(c2C#N)CCC3)c1 the “activity change, negative = inhibition” value was inactive: -2.56%.
O=C(COc1ccc(F)cc1)Nc1ccccc1C(=O)OCc1cc(=O)n2ccsc2n1 was tested, and the Potency was inconclusive: 89.1 µM [inhibitor, single point].
COc1ccc(N2CCN(C(=O)C3CCN(S(=O)(=O)c4ccc(F)cc4)CC3)CC2)cc1 was tested, and the Potency was inconclusive: 79.4 µM [inhibitor, single point].
For CC(C)CCNC(=O)C(=O)NCC1OCCCN1S(=O)(=O)c1cccs1 (stereo unspecified), the “activity change, negative = inhibition” value was inactive: -12.5%.
For COc1ccc(OC)c(-n2c(=S)[nH]c3c(sc(=S)n3-c3ccccc3C)c2=O)c1, the Potency was inconclusive: 44.7 µM [inhibitor, partial curve, poor fit].
With O=C(CSCc1cc(=O)n2ccsc2n1)Nc1ccc(F)cc1 the “activity change, negative = inhibition” value was inactive: -13.5%.
With O=C(Nc1ccccc1)c1cccnc1N1CCCC1 the “activity change, negative = inhibition” value was inactive: 5.04%.
Cc1nc2scc(C)n2c(=O)c1S(=O)(=O)Nc1ccc(OC(F)(F)F)cc1 was tested, and the “activity change, negative = inhibition” value was inactive: -2.88%.
With CC(C)CC(C(=O)NC(=O)NCc1ccccc1)N1C(=O)c2ccccc2C1=O (stereo unspecified) the Potency was inconclusive: 79.4 µM [inhibitor, partial curve].
With O=C(c1ccco1)N(Cc1ccc([N+](=O)[O-])cc1)c1ccc(Cl)cc1 the Potency was inconclusive: 50.1 µM [inhibitor, partial curve].
For c1ccc(-c2n[nH]c(-c3ccccn3)n2)nc1, the Potency was active: 1.41 µM and active: 708 nM.
In the case of O=C(CN1CCN(S(=O)(=O)c2ccccc2)CC1)NCCc1ccccc1, the “activity change, negative = inhibition” value is reported as inactive: 0.348%.
In the case of Cc1ccc(C(=O)Nc2nc3nc(-c4ccccc4)cc(=O)n3[nH]2)cc1, the Potency is reported as inconclusive: 89.1 µM [inhibitor, single point].
CCN(CC)c1ccc(/C=N/N=C(c2ccccc2)c2ccccc2)c(O)c1 was tested, and the Potency was inconclusive: 11.2 µM [inhibitor, full curve].
CCOc1cc(NC(=O)c2ccccn2)c(OCC)cc1NC(=O)CC(C)C was tested, and the “activity change, negative = inhibition” value was inactive: 6.96%.
Cc1ccc(NC(=O)Cn2cccc2)cc1C was tested, and the Potency was inconclusive: 50.1 µM [inhibitor, partial curve].
For CC(=O)c1ccc(NC(=O)C2=CC(c3ccc(C)cc3)=NS(=O)(=O)N2C)cc1, the Potency was inconclusive: 20 µM [inhibitor, full curve].
In the case of Cc1ccc(S(=O)(=O)Cc2nc(-c3ccc(C(=O)NCc4ccccc4C)cc3)oc2C)cc1, the Potency is reported as inconclusive: 89.1 µM [inhibitor, single point].
O=C(O)/C=C/c1cccc2c1OCCO2 was tested, and the Potency was inconclusive: 89.1 µM [inhibitor, single point].
With CCOc1ccc(-c2nonc2NC(=O)c2oc3ccc(C)cc3c2C)cc1OCC the “activity change, negative = inhibition” value was inactive: 1.66%.
In the case of COc1ccc(CN2C(=O)C(CC(C)C)Nc3ncnc(N4CCN(c5ccccc5)CC4)c32)cc1 (stereo unspecified), the Potency is reported as inconclusive: 39.8 µM [inhibitor, partial curve].
O=C(O)C(Nc1nc(C(F)(F)F)nc2ccccc12)c1ccccc1 (stereo unspecified) was tested, and the Potency was inconclusive: 89.1 µM [inhibitor, single point].
With O=C(NCC(c1ccco1)N1CCCCC1)c1ccc2c(c1)S(=O)(=O)c1ccccc1C2=O (stereo unspecified) the Potency was inconclusive: 70.8 µM [inhibitor, single point].
With Cc1onc(-c2ccccc2)c1C(=O)NC(=S)NNC(=O)c1cccnc1 the “activity change, negative = inhibition” value was inactive: 6.13%.
N#C/C(=C/c1cn(-c2ccccc2)nc1-c1cccc(OCc2ccccc2)c1)C(=O)NCCCn1ccnc1 was tested, and the Potency was active: 10 µM.
In the case of O=C(O)C1Cc2ccccc2CN1S(=O)(=O)c1ccc(Cl)cc1 (stereo unspecified), the Potency is reported as inconclusive: 79.4 µM [inhibitor, partial curve].
With O=c1c2c3c(sc2ncn1/N=C/c1ccc([N+](=O)[O-])o1)CCCC3 the Potency was inconclusive: 3.16 µM [inhibitor, single point].
With COc1ccc(Cn2c(=O)n(-c3ccc(OC)cc3)c(=O)c3c2c2cc(OC)ccc2n3C)cc1 the “activity change, negative = inhibition” value was inactive: 1.3%.
In the case of O=C1NC(=Nc2ccc(O)cc2)S/C1=C\C=C\c1ccco1, the Potency is reported as inconclusive: 50.1 µM [inhibitor, partial curve].
With Cc1ccc(S(=O)(=O)/C(C#N)=C/c2c(N3CCN(Cc4ccccc4)CC3)nc3ccccn3c2=O)cc1 the Potency was inconclusive: 3.16 µM [inhibitor, full curve].
For COc1cccc(C2/C(=C(/O)c3ccc(C)cc3)C(=O)C(=O)N2Cc2ccco2)c1 (stereo unspecified), the “activity change, negative = inhibition” value was inactive: -37.2%.
In the case of CCOC(=O)CC(=O)CSc1nc2c(sc(=S)n2-c2ccc(OCC)cc2)c(=O)[nH]1, the Potency is reported as inconclusive: 79.4 µM [inhibitor, single point].
COc1ccccc1C(=O)Nc1c(C(=O)N2CCN(C)CC2)oc2ccccc12 was tested, and the “activity change, negative = inhibition” value was inactive: -23.3%.
In the case of Cc1ccc(S(=O)(=O)N(C)C)cc1NC(=O)Nc1ccccc1, the “activity change, negative = inhibition” value is reported as inactive: -10.4%.
For CN(C)c1ccc(C2N(C)C(=O)c3ccccc3N2C)cc1 (stereo unspecified), the Potency was inconclusive: 56.2 µM [inhibitor, partial curve].
For O=C(Cc1ccccc1)c1nc2ccccc2s1, the Potency was active: 70.8 µM.
With Cc1c(C)n(C)c2ccc(C(=O)NCCCN(C)C3CCCCC3)cc12 the Potency was active: 25.1 µM.
With Cc1cccc(S(=O)(=O)c2cn(C)c3cc(N4CCN(c5ccc(F)cc5)CC4)c(F)cc3c2=O)c1 the “activity change, negative = inhibition” value was inactive: -3.8%.
